Experimental findings from the supplement of paper PMC4604168 (melanoma cell lines) are described below.

Molecules are shown by their SMILES. The list shows a part of the results. Most values come without repeats; read them as rough.
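Note: cell number obtained by counting DAPI-stained nuclei in high-throughput microscope images with image analysis software, screen run in 1,536-well plates.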

The first test deals with LOXIMVI. Description: cell count relative to DMSO control; melanoma cells; higher = more viable cells. The note with it: library dose: low library concentration; 72 h.
The compound `Nc1nc(F)nc2c1ncn2[C@@H]1O[C@H](CO)[C@@H](O)[C@@H]1O` [fludarabine] + NCC(=O)Nc1ccc(-n2nc(C(F)(F)F)cc2-c2ccc3c(ccc4ccccc43)c2)cc1 [OSU03012] (first compound 0.2 µM, partner dose 1 µM) came in with a cell count of 74%. Consider `Nc1ccn([C@@H]2O[C@H](CO)[C@@H](O)C2(F)F)c(=O)n1` [gemcitabine] + COc1cc(Nc2ncc(F)c(Nc3ccc4c(n3)NC(=O)C(C)(C)O4)n2)cc(OC)c1OC [Tamatinib] (first compound 0.0004 µM, partner dose 0.4 µM), for which the cell count was found to be 37.8%. With `Nc1nc(F)nc2c1ncn2[C@@H]1O[C@H](CO)[C@@H](O)[C@@H]1O` [fludarabine] + COc1cc(N2CCC(N3CCN(C)CC3)CC2)ccc1Nc1ncc(Cl)c(Nc2ccccc2S(=O)(=O)C(C)C)n1 [NVP-TAE684] (first compound 0.2 µM, partner dose 0.08 µM), the cell count amounted to 118%. The same measure, in the same setting: as for `Nc1ncn([C@H]2C[C@H](O)[C@@H](CO)O2)c(=O)n1` [decitabine] + COc1cc(Nc2ncc(F)c(Nc3ccc4c(n3)NC(=O)C(C)(C)O4)n2)cc(OC)c1OC [Tamatinib] (first compound 0.1 µM, partner dose 0.4 µM), the figure is 125%; as for `Nc1ccn([C@@H]2O[C@H](CO)[C@@H](O)C2(F)F)c(=O)n1` [gemcitabine] + Cc1ccc(NC(=O)c2cccc(N(C)C)c2)cc1NC(=O)c1ccc(O)cc1 [ZM336372] (first compound 0.0004 µM, partner dose 2 µM), 125%; as for `Nc1ncn([C@H]2C[C@H](O)[C@@H](CO)O2)c(=O)n1` [decitabine] + NCC(=O)Nc1ccc(-n2nc(C(F)(F)F)cc2-c2ccc3c(ccc4ccccc43)c2)cc1 [OSU03012] (first compound 0.1 µM, partner dose 1 µM), 82.8%.

A further test has as its system MEL-HO. The test is described as above. To be noted: library dose: low library concentration; 72 h.
As for `Nc1ncn([C@H]2C[C@H](O)[C@@H](CO)O2)c(=O)n1` [decitabine] + CC(C)CCN1c2nc(Nc3cc(F)c(O)c(F)c3)ncc2N(C)C(=O)C1C [BID1870] (first compound 0.1 µM, partner dose 0.2 µM), the cell count stood at 62.6%.

Regarding `Nc1ccn([C@@H]2O[C@H](CO)[C@@H](O)C2(F)F)c(=O)n1` [gemcitabine] + CC(C)CCN1c2nc(Nc3cc(F)c(O)c(F)c3)ncc2N(C)C(=O)C1C [BID1870] (first compound 0.0004 µM, partner dose 0.2 µM), the cell count is 88.4%.

In turn, `Nc1ncn([C@H]2C[C@H](O)[C@@H](CO)O2)c(=O)n1` [decitabine] + CC1(C)NC(=O)N(c2ccc([N+](=O)[O-])c(C(F)(F)F)c2)C1=O [nilutamide] (first compound 0.1 µM, partner dose 1 µM) registered a cell count of 89.3%. `CC(=O)O[C@@]12CO[C@@H]1C[C@H](O)[C@@]1(C)C(=O)[C@H](O)C3=C(C)[C@@H](OC(=O)[C@H](O)[C@@H](NC(=O)OC(C)(C)C)c4ccccc4)C[C@@](O)([C@@H](OC(=O)c4ccccc4)[C@H]21)C3(C)C` [Docetaxel] + CCc1ccc(CCOc2ccc(CC3SC(=O)NC3=O)cc2)nc1 [pioglitazone] (first compound 0.0001 µM, partner dose 2 µM) returned a cell count of 72.1%.

As to `Nc1ncn([C@H]2C[C@H](O)[C@@H](CO)O2)c(=O)n1` [decitabine] + Cc1cc(N2CCOCC2)cc2[nH]c(-c3c(NC[C@@H](O)c4cccc(Cl)c4)cc[nH]c3=O)nc12 [BMS536924] (first compound 0.1 µM, partner dose 0.2 µM), the cell count is 96.1%. The compound `Nc1ncn([C@H]2C[C@H](O)[C@@H](CO)O2)c(=O)n1` [decitabine] + O=S(=O)(c1ccccc1)N(CC(F)(F)F)c1ccc(C(O)(C(F)(F)F)C(F)(F)F)cc1 [T0901317] (first compound 0.1 µM, partner dose 1.4 µM) came in with a cell count of 72%.

`Nc1ncn([C@H]2C[C@H](O)[C@@H](CO)O2)c(=O)n1` [decitabine] + COc1cc(N2CCC(N3CCN(C)CC3)CC2)ccc1Nc1ncc(Cl)c(Nc2ccccc2S(=O)(=O)C(C)C)n1 [NVP-TAE684] (first compound 0.1 µM, partner dose 0.08 µM) registered a cell count of 74.1%.
